Where two headings read alike, the source gives them in different places.
Tests used:
[1] = test system: MCF-7 cells; test: Test E: growth inhibitory activity in MCF-7 cells in culture; format: cell-based; details: 48 hours, trypan-blue exclusion
Method: Representative compounds of the invention were evaluated for growth inhibitory activity in MCF-7 cells in culture. […] Typically, 24-well and 6-well plates were used to culture 25,000-100,000 and 200,000-500,000 cells, respectively.

[2] = test system: MCF-7 breast cancer cells; test: Test G: activity against MCF-7 breast cancer cells; format: cell-based
Method: (§1) The activity of representative compounds of formula VII against MCF-7 breast cancer cells and CEM T-cell leukemia cells were determined using a procedure similar to that described by C. R. Wagner, et al. Cancer Research, 1997, 57, 2341-2345.

[3] = test system: HIV (antiviral activity in PBMC's); test: Test B: antiviral activity in PBMC's; format: cell-based
Excerpt: The antiviral properties of compounds of the invention can also be determined in PBMCs using a procedure similar to that described by E. I. McIntee, et al. J. Med. Chem., 1997, 40, 3323-3331.

[4] = test system: CEM T-cell leukemia cells; test: Test G: activity against CEM T-cell leukemia cells; format: cell-based
Method: as §1

[5] = test system: MCF-7 cells
[6] = Log P; format: physicochemical
[7] = test system: MCF-7 cells; test: Test C: cytotoxicity in MCF-7 breast cancer cells; details: read-out: CC50 MCF-7 cells; Table 3
[8] = Donor 1, read-out: IC50 PBMC's Donor 1
[9] = Donor 2, read-out: IC50 PBMC's Donor 2

COC(=O)[C@@H](NP(=O)(O)OC[C@H]1O[C@@H](n2cc(C)c(=O)[nH]c2=O)C[C@@H]1N=[N+]=[N-])C(C)C [Compound 20, 3′-Azido-3′-deoxythymidine-5′-methoxy-L-valinylphosphoramidate]
CC50 [1]: 7500 nM

COC(=O)[C@@H](Cc1ccccc1)NP(=O)(O)OC[C@H]1O[C@@H](n2cc(F)c(=O)[nH]c2=O)C[C@@H]1O [Compound 39, 5-fluoro-2′deoxy-5′-uridyl N-((D)-1-carbomethoxy-2-phenylethyl)phosphoramidate]
CC50 [2]: > 100000 nM

CNC(=O)[C@H](Cc1c[nH]c2ccccc12)NP(=O)(O)OC[C@H]1O[C@@H](n2cc(C)c(=O)[nH]c2=O)C[C@@H]1N=[N+]=[N-] [Compound 30, 3′-Azido-3′-deoxythymidine-5′-methylamino-L-tryptophanylphosphoramidate]
IC50 [3, 8]: 700 nM | IC50 [3, 9]: 1800 nM | CC50 [1]: 25 nM

O=c1[nH]cc(F)c(=O)[nH]1 [FU, 5-fluorouracil, reference compound]
CC50 ([2]; Homo sapiens, MCF7): 1600 nM | CC50 ([4]; T-cell): 3700 nM

COC(=O)[C@@H](Cc1c[nH]c2ccccc12)NP(=O)(O)OC[C@H]1O[C@@H](n2cc(C)c(=O)[nH]c2=O)C[C@@H]1N=[N+]=[N-] [Compound 10, 3-Azido-3-deoxythymidine-5-methoxy-D-trytophanyl-phosphoramidate]
CC50 [1]: > 100000 nM | CC50 [5]: > 100000 nM

COC(=O)[C@H](Cc1ccccc1)NP(=O)(O)OC[C@H]1O[C@@H](n2cc(F)c(=O)[nH]c2=O)C[C@@H]1O [Compound 36, 5-fluoro-2′deoxy-5′-uridyl N-((L)-1-carbomethoxy-2-phenylethyl)phosphoramidate]
CC50 [2]: 45 nM | CC50 [4]: 320 nM | Half-life Cell Media 37 C: >48 h

COC(=O)CNP(=O)(O)OC[C@H]1O[C@@H](n2cc(C)c(=O)[nH]c2=O)C[C@@H]1N=[N+]=[N-] [Compound 17, 3′-Azido-3′-deoxythymidine-5′-methoxyglycinyl phosphoramidate]
CC50 [1]: > 100000 nM

COC(=O)[C@@H](Cc1ccccc1)NP(=O)(O)OCC1OC(n2cc(C)c(=O)[nH]c2=O)CC1N=[N+]=[N-] (stereo partly drawn) [Compound 12, 3-Azido-3-deoxythymidine-5-methoxy-D-phenylalaninylphosphoramidate]
CC50 [1]: > 100000 nM

COC(=O)[C@H](C)NP(=O)(O)OC[C@H]1O[C@@H](n2cc(C)c(=O)[nH]c2=O)C[C@@H]1N=[N+]=[N-] [Compound 19, 3′-Azido-3′-deoxythymidine-5′-methoxy-L-alaninylphosphoramidate]
CC50 [1]: 6000 nM

COC(=O)[C@H](Cc1ccccc1)NP(=O)(O)OC[C@H]1O[C@@H](n2cc(C)c(=O)[nH]c2=O)C[C@@H]1N=[N+]=[N-] [Compound 11, 3-Azido-3-deoxythymidine-5-methoxy-L-phenylalaninylphosphoramidate]
Log P [6]: −2.4209 | CC50 [1]: 400 nM | CC50 [7]: 400 nM

CNC(=O)[C@H](Cc1ccccc1)NP(=O)(O)OC[C@H]1O[C@@H](n2cc(C)c(=O)[nH]c2=O)C[C@@H]1N=[N+]=[N-] [Compound 27, 3′-Azido-3′-deoxythymidine-5′-methylamino-L-phenylalaninylphosphoramidate]
IC50 [3, 8]: 180 nM | IC50 [3, 9]: 250 nM | CC50 [1]: 1500 nM

CNC(=O)[C@@H](Cc1ccccc1)NP(=O)(O)OC[C@H]1O[C@@H](n2cc(C)c(=O)[nH]c2=O)C[C@@H]1N=[N+]=[N-] [Compound 28, 3′-Azido-3′-deoxythymidine-5′-methylamino-D-phenylalaninylphosphoramidate]
IC50 [3, 8]: 900 nM | IC50 [3, 9]: 100 nM | CC50 [1]: > 100000 nM

COC(=O)[C@H](Cc1c[nH]c2ccccc12)NP(=O)(O)OC[C@H]1O[C@@H](n2cc(C)c(=O)[nH]c2=O)C[C@@H]1N=[N+]=[N-] [Compound 9, 3-Azido-3-deoxythymidine-5-methoxy-L-trytophanyl-phosphoramidate]
CC50 [1]: 30 nM

CNC(=O)[C@@H](Cc1c[nH]c2ccccc12)NP(=O)(O)OC[C@H]1O[C@@H](n2cc(C)c(=O)[nH]c2=O)C[C@@H]1N=[N+]=[N-] [Compound 31, 3′-Azido-3′-deoxythymidine-5′-methylamino-D-tryptophanylphosphoramidate]
IC50 [3, 8]: 400 nM | IC50 [3, 9]: 180 nM | CC50 [1]: > 100000 nM

Cc1cn([C@H]2C[C@H](N=[N+]=[N-])[C@@H](COP(=O)(O)N[C@@H](Cc3c[nH]c4ccccc34)C(=O)NC3CCCCC3)O2)c(=O)[nH]c1=O [Compound 35, 3′-Azido-3′-deoxythymidine-5′-cyclohexylamino-L-tryptophanylphosphoramidate]
CC50 [1]: 7500 nM

Cc1cn([C@H]2C[C@H](N=[N+]=[N-])[C@@H](CO)O2)c(=O)[nH]c1=O [AZT, reference compound]
IC50 [3, 8]: 3 nM | IC50 [3, 9]: 10 nM | Log P [6]: 0.1244 | CC50 [1]: 8 nM

3′-Azido-3′-deoxythymidine-5′-methoxy-L-leucinylphosphoramidate [Compound 21]
CC50 [1]: > 100000 nM

From patent US6475985B1, “Nucleosides with antiviral and anticancer activity” (priority 1998, dated 2002)
